Measured values from patent US20060194762A1, “Composition comprising an epothilone and methods for producing a composition comprising an epothilone” (priority 2004, published 2006).
In brackets after ≈: the same amount, converted by molar mass. Several values for one entry are separate records, joined by “and”; a condition that tells them apart may be missing. Equal entries are not always repeated. Where two headings read alike, the source gives them in different places.

How the values were obtained:
[1] = Solubility of epothilone in water under saturation conditions; format: physicochemical
Source text: Epothilone is usually not very stable in solution. Thus the compound must be protected from hydrolysis. In addition the stability is dependent from the pH of the solution. […] The low stability of epothilone is shown in example 4. The degradation is proportional to [K×concentration].

[2] = Degradation rate constant of Epothilone* in reconstituted aqueous hydroxypropyl-beta-cyclodextrin solutions at adjusted pH (HPLC); format: physicochemical; settings: aqueous solution containing hydroxypropyl-beta-cyclodextrin
Method: Stability data of Epothilone* (1S,3S,7S,10R,11S,12S,16R)-7,11-dihydroxy-3-(2-methyl-benzothiazol-5-yl)-10-(prop-2-en-1-yl)-8,8,12,16-tetramethyl-4,17-dioxabicyclo[14.1.0]heptadecane-5,9-dione) in aqueous solutions containing hydroxypropyl-beta-cyclodextrin.
Freeze-dried preparations as shown in Example 1 were reconstituted with water for injection and the pH was then adjusted to pH values between 6.1 and 13.6 using HCl or NaOH. The solutions were left at room temperature or 40° C. and assay and purity were measured at intervals using HPLC.
The degradation rate constant (K) of the Epothilone* decreases as the pH value approaches the neutral pH. The degradation rate is at minimum at pH 7.

[3] = Phase solubility diagram technique: apparent equilibrium stability constant of the complex with hydroxypropyl-beta-cyclodextrin; format: physicochemical; settings: 25° C., aqueous solution
Source text: Determination of the apparent equilibrium stability constant of the complex between Epothilone*(1S,3S,7S,10R,11S,12S,16R)-7,11-dihydroxy-3-(2-methylbenzothiazol-5-yl)-10-(prop-2-en-1-yl)-8,8,12,16-tetramethyl-4,17-dioxabicyclo[14,1,0]heptadecane-5,9-dione) and hydroxypropyl-beta-cyclodextrin on aqueous solution.
K′ leads to the assumption that if at all a complex was formed it is not sufficiently stable.

[4] = system: Patients with histologically confirmed advanced solid tumors

## C=CC[C@H]1C(=O)C(C)(C)[C@@H](O)CC(=O)O[C@H](c2ccc3sc(C)nc3c2)C[C@@H]2O[C@]2(C)CCC[C@H](C)[C@@H]1O [Epothilone*, (1S,3S,7S,10R,11S,12S,16R)-7,11-dihydroxy-3-(2-methyl-benzothiazol-5-yl)-10-(prop-2-en-1-yl)-8,8,12,16-tetramethyl-4,17-dioxabicyclo[14.1.0]heptadecane-5,9-dione]
[1]
  solubility: ~12 µg/mL (≈ 22.1 µM)
[2]
  pH at which the degradation rate is at minimum: 7
[3]; hydroxypropyl-beta-cyclodextrin
  stability constant K′ of an assumed 1:1 complex: 484.5 M⁻¹
[3]; water, thermodynamic from solid, phase solubility diagram, read-out: solubility So
  solubility: 43 µM and 23 µg/mL
[4]; 16 mg/m^2, 30 minutes intravenous infusion every 3 weeks
  Dose limiting toxicity observed: CTC Grade 3 peripheral neuropathy
[4]; 29 mg/m^2, 30 minutes intravenous infusion every 3 weeks
  Dose limiting toxicity observed: CTC Grade 4 ataxia
